From the BET-seq Pho4 binding data (Le et al. 2018)
The other results are listed elsewhere or left out. The energies were worked out here from pooled read counts, against the library average; single values are noisy.

Target: T1, Pho4 (S. cerevisiae) (UniProt P07270)
T1 sequence: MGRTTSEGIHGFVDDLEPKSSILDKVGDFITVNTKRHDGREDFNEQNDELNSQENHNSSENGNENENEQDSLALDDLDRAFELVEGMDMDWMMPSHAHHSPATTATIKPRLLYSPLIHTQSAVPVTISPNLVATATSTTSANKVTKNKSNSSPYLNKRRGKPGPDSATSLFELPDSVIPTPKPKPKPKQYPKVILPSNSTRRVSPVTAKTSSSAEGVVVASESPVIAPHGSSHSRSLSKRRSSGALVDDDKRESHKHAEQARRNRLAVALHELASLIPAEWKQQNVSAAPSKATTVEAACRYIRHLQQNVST
Assay: relative binding free energy (BET-seq); higher = weaker binding
Conditions: reference: library average

Sequence | relative binding free energy
GTGTTCACGTGTAAGG | 0.34 kcal/mol
TCAGGCACGTGAGGGA | 0.19 kcal/mol
TTCTGCACGTGCTGGT | -0.08 kcal/mol
GCGGGCACGTGCGTTT | -0.12 kcal/mol
AATTTCACGTGGTTCT | 0.21 kcal/mol
GCAATCACGTGGTAGT | 0.19 kcal/mol
ACGGTCACGTGAATGT | 0.32 kcal/mol
TAGTACACGTGGGTTT | -0.1 kcal/mol
GATTTCACGTGGTGGG | 0.37 kcal/mol
AATAGCACGTGGGGGG | -0.17 kcal/mol
CGGATCACGTGATGTG | 0.15 kcal/mol
GAATTCACGTGGTAGT | 0.29 kcal/mol
TAGAACACGTGTGATT | 0.16 kcal/mol
GGATGCACGTGTTGCT | 0.02 kcal/mol
TTTGACACGTGCTGTG | -0.14 kcal/mol
AGATCCACGTGTGGGG | 0.22 kcal/mol
GGGAGCACGTGTGGGA | -0.05 kcal/mol
GTTGGCACGTGAAACG | 0.07 kcal/mol
GGCAACACGTGTAGTT | 0.14 kcal/mol
TGTAGCACGTGTCGGG | -0.07 kcal/mol
AGTGGCACGTGGCGCT | -0.21 kcal/mol
GGTTTCACGTGATTCA | 0.49 kcal/mol
ACGGGCACGTGGTAGA | -0.21 kcal/mol

Sequence | relative binding free energy
GATGGCACGTGTAGTT | 0.17 kcal/mol
ATATGCACGTGTATTT | -0.04 kcal/mol
AAAGGCACGTGTCGAT | 0.05 kcal/mol
TAGTGCACGTGTTTGG | -0.09 kcal/mol
GCGTTCACGTGCGGTT | 0.27 kcal/mol
TCGGTCACGTGGAGGT | 0.14 kcal/mol
CAGTTCACGTGGATTG | 0.28 kcal/mol
GTTGGCACGTGATTTC | -0.02 kcal/mol
CGTTACACGTGTTATA | 0.09 kcal/mol
AAGGGCACGTGGATCT | -0.01 kcal/mol
GTATACACGTGGGAGG | -0.02 kcal/mol
ATGTACACGTGAAGAT | 0.24 kcal/mol
CTATACACGTGGGGAT | 0.06 kcal/mol
GAGTGCACGTGGCGAT | -0.13 kcal/mol
TATATCACGTGCATTT | 0.18 kcal/mol
CTTAGCACGTGGGGCG | -0.24 kcal/mol
GGCTGCACGTGTGGTA | -0.04 kcal/mol
GGCTGCACGTGGTTGA | -0.09 kcal/mol
GGCTTCACGTGAGGTC | 0.44 kcal/mol
TTTGGCACGTGTCGTA | -0.14 kcal/mol
GTGGTCACGTGTCAGA | 0.2 kcal/mol
CGTATCACGTGTGGTT | 0.21 kcal/mol
CTATTCACGTGTGGGC | 0.24 kcal/mol

Sequence | relative binding free energy
GGTCTCACGTGAGGGT | 0.38 kcal/mol
GTCGGCACGTGTAAGT | 0.08 kcal/mol
TGTGTCACGTGGCCTT | 0 kcal/mol
ATCGACACGTGGGTTA | -0.01 kcal/mol
ATGGTCACGTGGCTTC | 0.09 kcal/mol
TCGTACACGTGTCGGG | 0.11 kcal/mol
GTACGCACGTGGTTTG | -0.06 kcal/mol
TTAGGCACGTGACGAT | 0.04 kcal/mol
GGACACACGTGGGGGT | -0.07 kcal/mol
AGTATCACGTGCGTTT | 0.09 kcal/mol
GAGTGCACGTGGGAAT | 0.02 kcal/mol
GGACTCACGTGGTGTT | 0.16 kcal/mol
TGGATCACGTGTATAT | 0.27 kcal/mol
AGAGGCACGTGATTAG | -0.08 kcal/mol
ATGTGCACGTGTGAGG | 0.07 kcal/mol
GGGTGCACGTGATGGG | 0.15 kcal/mol
GGGCGCACGTGGTTAT | -0.11 kcal/mol
ATTGGCACGTGAGTTG | 0.1 kcal/mol
GCGTGCACGTGTGAGG | 0.11 kcal/mol
TTTTGCACGTGTCTAG | 0.08 kcal/mol
GGCTTCACGTGTGCGT | 0.25 kcal/mol
CTTTGCACGTGTGGGT | 0.05 kcal/mol
GGAAACACGTGATGTG | 0.03 kcal/mol

Sequence | relative binding free energy
GTATGCACGTGCGTTT | -0.1 kcal/mol
TTATTCACGTGTTGTA | 0.16 kcal/mol
TTGGGCACGTGTGGGC | 0.01 kcal/mol
GCGTGCACGTGTGAGT | -0.03 kcal/mol
AAGTTCACGTGGTTCG | 0.2 kcal/mol
GTATTCACGTGGGTAC | 0.18 kcal/mol
AGCGGCACGTGACGGT | -0.03 kcal/mol
AGTGGCACGTGGGTGG | -0.23 kcal/mol
TGGGCCACGTGGCCGG | -0.19 kcal/mol
GGGACCACGTGGTATG | -0.1 kcal/mol
CATTTCACGTGGGTTG | 0.21 kcal/mol
CTCGTCACGTGGGGAA | -0.05 kcal/mol
GATATCACGTGGGGAA | 0.03 kcal/mol
ATGTGCACGTGAAAGA | 0.23 kcal/mol
GTGGGCACGTGAGCGT | 0.13 kcal/mol
GGTGTCACGTGGATTG | 0.09 kcal/mol
TGAATCACGTGGGGCT | 0.1 kcal/mol
AAAAGCACGTGGGGAA | -0.01 kcal/mol
TGGGCCACGTGGGTTT | -0.03 kcal/mol
GGAGGCACGTGAGCGC | 0.15 kcal/mol
TTTTGCACGTGTTTCA | 0 kcal/mol
CGCGGCACGTGCGGTG | -0.05 kcal/mol
GGTGGCACGTGGTCCG | -0.16 kcal/mol

Sequence | relative binding free energy
TTTGTCACGTGATTTA | 0.25 kcal/mol
GTGGACACGTGCTGGT | -0.03 kcal/mol
TACTTCACGTGTATTT | 0.33 kcal/mol
CTGTTCACGTGAGGAG | 0.28 kcal/mol
GGCATCACGTGGTGAA | 0.25 kcal/mol
AGACGCACGTGGTAGG | -0.15 kcal/mol
ATTGGCACGTGGCTCT | -0.14 kcal/mol
TGCTACACGTGGGGGG | 0.02 kcal/mol
TATGCCACGTGTTTTA | -0.14 kcal/mol
TTCATCACGTGAGTGG | 0.31 kcal/mol
ATCTTCACGTGGGGTC | 0.09 kcal/mol
GTATACACGTGAGGGT | 0.26 kcal/mol
ATGGGCACGTGGTGAC | -0.21 kcal/mol
AAGGGCACGTGTTTTG | -0.09 kcal/mol
TCAATCACGTGTGGTA | 0.23 kcal/mol
CATTTCACGTGGTCAT | 0.32 kcal/mol
CGGTTCACGTGGTGAC | 0.24 kcal/mol
TGTACCACGTGTAGGG | -0.04 kcal/mol
GGGTCCACGTGTGGAT | 0.19 kcal/mol
AATATCACGTGGGATG | 0.02 kcal/mol
GATATCACGTGTGAAT | 0.25 kcal/mol
AAGGGCACGTGGAAAG | -0.07 kcal/mol
AGTCCCACGTGGGAGG | -0.1 kcal/mol
